Data reported in patent US20180015075A1, “METHODS AND COMPOSITIONS FOR TREATMENT OF VENOUS MALFORMATION” (Children's Hospital Medical Center, priority 2016, published 2018).
Where a name gives a salt, the structure may show the parent alone. Starred links: 1 amine or outer side, 2 acyl side, 3 side chain; linkers in the order of their positions; H or OH if unused. Positions of bridges follow the written chain, without caps; N, C: chain ends. Non-standard residues stand in square brackets, D forms with d. Residues, ends and D or L forms follow the SMILES beside them. Chains are numbered I, II in the order given. Actinocin(9to1) = Cc1c2oc3c(C)ccc(C(=O)[*:1])c3nc-2c(C(=O)[*:2])c(N)c1=O; NMeV = CN[C@H](C(=O)O)C(C)C; Sar = CNCC(=O)O

Key:
HUVEC-TIE2-WT = experiment: cells; conditions: Homo sapiens; for inhibition at 20 µM: read-out: Average proliferation Inhibition rate (%) WT
HUVEC-TIE2-L914F = experiment: cells; conditions: Homo sapiens; for inhibition at 20 µM: read-out: Average proliferation Inhibition rate (%) L914F

In the case of `C[C@]12CC[C@H](O)CC1=CC[C@@H]1[C@@H]2CC[C@]2(C)C(c3cccnc3)=CC[C@@H]12` [Abiraterone], the inhibition at 20 µM (HUVEC-TIE2-WT) is reported as -7.15% and the inhibition at 20 µM (HUVEC-TIE2-L914F) is reported as 5.33%.

Molecule `CN(C)C/C=C/C(=O)Nc1cc2c(Nc3ccc(F)c(Cl)c3)ncnc2cc1O[C@H]1CCOC1` [Afatinib] has an inhibition at 20 µM (HUVEC-TIE2-WT) of 13.1% and an inhibition at 20 µM (HUVEC-TIE2-L914F) of 41.4%.

`Oc1ncnc2[nH]ncc12` [Allopurinol] gave an inhibition at 20 µM (HUVEC-TIE2-WT) of -1.38% and an inhibition at 20 µM (HUVEC-TIE2-L914F) of -0.18%.

`CN(C)c1nc(N(C)C)nc(N(C)C)n1` [Altretamine] gave an inhibition at 20 µM (HUVEC-TIE2-WT) of -0.88% and an inhibition at 20 µM (HUVEC-TIE2-L914F) of -3.57%.

With `NCCCNCCSP(=O)(O)O` [Amifostine] the inhibition at 20 µM (HUVEC-TIE2-WT) was -11.5% and the inhibition at 20 µM (HUVEC-TIE2-L914F) was 0.66%.

Work on `NCC(=O)CCC(=O)O` [Aminolevulinic acid hydrochloride] yielded an inhibition at 20 µM (HUVEC-TIE2-WT) of -3.6% and an inhibition at 20 µM (HUVEC-TIE2-L914F) of -1.31%.

With `CC(C)(C#N)c1cc(Cn2cncn2)cc(C(C)(C)C#N)c1` [Anastrozole] the inhibition at 20 µM (HUVEC-TIE2-WT) was -1.07% and the inhibition at 20 µM (HUVEC-TIE2-L914F) was 3.95%.

Molecule `Nc1ncn([C@@H]2O[C@H](CO)[C@@H](O)[C@H]2O)c(=O)n1` [Azacitidine] has an inhibition at 20 µM (HUVEC-TIE2-WT) of 31.5% and an inhibition at 20 µM (HUVEC-TIE2-L914F) of 42.6%.

For `O=C(/C=C/c1cccc(S(=O)(=O)Nc2ccccc2)c1)NO` [Belinostat], the inhibition at 20 µM (HUVEC-TIE2-WT) was 37.3% and the inhibition at 20 µM (HUVEC-TIE2-L914F) was 54.6%.

With `CC(C)C[C@H](NC(=O)[C@H](Cc1ccccc1)NC(=O)c1cnccn1)B(O)O` [Bortezomib] the inhibition at 20 µM (HUVEC-TIE2-WT) was 69.5% and the inhibition at 20 µM (HUVEC-TIE2-L914F) was 81%.

`CS(=O)(=O)OCCCCOS(C)(=O)=O` [Busulfan] showed an inhibition at 20 µM (HUVEC-TIE2-WT) of 0.46% and an inhibition at 20 µM (HUVEC-TIE2-L914F) of 0.26%.

`CO[C@H]1C(=O)[C@]2(C)[C@@H](OC)C[C@H]3OC[C@@]3(OC(C)=O)[C@H]2[C@H](OC(=O)c2ccccc2)[C@]2(O)C[C@H](OC(=O)[C@H](O)[C@@H](NC(=O)OC(C)(C)C)c3ccccc3)C(C)=C1C2(C)C` [Cabazitaxel] gave an inhibition at 20 µM (HUVEC-TIE2-WT) of 32.4% and an inhibition at 20 µM (HUVEC-TIE2-L914F) of 21.1%.

Work on `COc1cc2nccc(Oc3ccc(NC(=O)C4(C(=O)Nc5ccc(F)cc5)CC4)cc3)c2cc1OC` [Cabozantinib] yielded an inhibition at 20 µM (HUVEC-TIE2-WT) of 58.3%, an IC50 (HUVEC-TIE2-WT; read-out: IC50 WT) of 2890 ± 1160 nM and an inhibition at 20 µM (HUVEC-TIE2-L914F) of 73.7%.

For `CCCCCOC(=O)Nc1nc(=O)n([C@@H]2O[C@H](C)[C@@H](O)[C@H]2O)cc1F` [Capecitabine], the inhibition at 20 µM (HUVEC-TIE2-WT) was -1.49% and the inhibition at 20 µM (HUVEC-TIE2-L914F) was 1.06%.

Work on `CC(C)C[C@H](NC(=O)[C@H](CCc1ccccc1)NC(=O)CN1CCOCC1)C(=O)N[C@@H](Cc1ccccc1)C(=O)N[C@@H](CC(C)C)C(=O)[C@@]1(C)CO1` [Carfilzomib] yielded an inhibition at 20 µM (HUVEC-TIE2-WT) of 65% and an inhibition at 20 µM (HUVEC-TIE2-L914F) of 76.8%.

Molecule `O=NN(CCCl)C(=O)NCCCl` [Carmustine] has an inhibition at 20 µM (HUVEC-TIE2-WT) of 3.32% and an inhibition at 20 µM (HUVEC-TIE2-L914F) of 7.11%.

For `Cc1ccc(-c2cc(C(F)(F)F)nn2-c2ccc(S(N)(=O)=O)cc2)cc1` [Celecoxib], the inhibition at 20 µM (HUVEC-TIE2-WT) was -10.2% and the inhibition at 20 µM (HUVEC-TIE2-L914F) was 5.55%.

`Cc1cc(Nc2ncc(Cl)c(Nc3ccccc3S(=O)(=O)C(C)C)n2)c(OC(C)C)cc1C1CCNCC1` [Ceritinib] was tested, and the inhibition at 20 µM (HUVEC-TIE2-L914F) was 76.6% and the IC50 (HUVEC-TIE2-L914F; read-out: IC50 L914F) was 9.03 ± 1.38 µM.

For `O=C(O)CCCc1ccc(N(CCCl)CCCl)cc1` [Chlorambucil], the inhibition at 20 µM (HUVEC-TIE2-WT) was 3.69% and the inhibition at 20 µM (HUVEC-TIE2-L914F) was 10.8%.

`Nc1nc(Cl)nc2c1ncn2[C@H]1C[C@H](O)[C@@H](CO)O1` [Cladribine] was tested, and the inhibition at 20 µM (HUVEC-TIE2-WT) was 33.4% and the inhibition at 20 µM (HUVEC-TIE2-L914F) was 40.2%.

Work on `Nc1nc(Cl)nc2c1ncn2[C@@H]1O[C@H](CO)[C@@H](O)[C@@H]1F` [Clofarabine] yielded an inhibition at 20 µM (HUVEC-TIE2-WT) of 35.2% and an inhibition at 20 µM (HUVEC-TIE2-L914F) of 44.2%.

`C[C@@H](Oc1cc(-c2cnn(C3CCNCC3)c2)cnc1N)c1c(Cl)ccc(F)c1Cl` [Crizotinib] was tested, and the inhibition at 20 µM (HUVEC-TIE2-WT) was 64.8% and the inhibition at 20 µM (HUVEC-TIE2-L914F) was 78.5%.

`CN(C)/N=N/c1[nH]cnc1C(N)=O` [Dacarbazine] was tested, and the inhibition at 20 µM (HUVEC-TIE2-WT) was -3.57% and the inhibition at 20 µM (HUVEC-TIE2-L914F) was -3.94%.

In the case of `Cc1c2oc3c(C)ccc(C(=O)N[C@@H]4C(=O)N[C@H](C(C)C)C(=O)N5CCC[C@H]5C(=O)N(C)CC(=O)N(C)[C@@H](C(C)C)C(=O)O[C@@H]4C)c3nc-2c(C(=O)N[C@@H]2C(=O)N[C@H](C(C)C)C(=O)N3CCC[C@H]3C(=O)N(C)CC(=O)N(C)[C@@H](C(C)C)C(=O)O[C@@H]2C)c(N)c1=O` [Dactinomycin] (I: T[dV]P[Sar][NMeV] / II: T[dV]P[Sar][NMeV]; ester I:1-I:C, II:1-II:C; linker I:N-II:N via Actinocin(9to1)), the inhibition at 20 µM (HUVEC-TIE2-WT) is reported as 45% and the inhibition at 20 µM (HUVEC-TIE2-L914F) is reported as 60.4%.

`Cc1nc(Nc2ncc(C(=O)Nc3c(C)cccc3Cl)s2)cc(N2CCN(CCO)CC2)n1` [Dasatinib, N-(2-Chloro-6-methylphenyl)-2-[[6-[4-(2-hydroxyethyl)-1-piperazinyl]-2-methyl-4-pyrimidinyl]amino]-5-thiazolecarboxamide] gave an inhibition at 20 µM (HUVEC-TIE2-WT) of 17% and an inhibition at 20 µM (HUVEC-TIE2-L914F) of 6.05%.

`COc1cccc2c1C(=O)c1c(O)c3c(c(O)c1C2=O)C[C@@](O)(C(C)=O)C[C@@H]3O[C@H]1C[C@H](N)[C@H](O)[C@H](C)O1` [Daunorubicin hydrochloride] showed an inhibition at 20 µM (HUVEC-TIE2-WT) of 57.3% and an inhibition at 20 µM (HUVEC-TIE2-L914F) of 70%.

For `Nc1ncn([C@H]2C[C@H](O)[C@@H](CO)O2)c(=O)n1` [Decitabine], the inhibition at 20 µM (HUVEC-TIE2-WT) was -1.12% and the inhibition at 20 µM (HUVEC-TIE2-L914F) was 8.76%.
